{"source": "a collection of fitness landscapes (doi:10.1126/science.1257360)", "parents": {"B1": {"name": "PhoQ; a variant is named by its letters at X, in order, P23837 (parent)", "chain": "MKKLLRLFFPLSLRVRFLLATAAVVLVLSLAYGMVALIGYSVSFDKTTFRLLRGESNLFYTLAKWENNKLHVELPENIDKQSPTMTLIYDENGQLLWAQRDVPWLMKMIQPDWLKSNGFHEIEADVNDTSLLLSGDHSIQQQLQEVREDDDDAEMTHSVAVNVYPATSRMPKLTIVVVDTIPVELKSSYMVWSWFIYVLSANLLLVIPLLWVAAWWSLRPIEALAKEVRELEEHNRELLNPATTRELTSLVRNLNRLLKSERERYDKYRTTLTDLTHSLKTPLXXLQXXLRSLRSEKMSVSDAEPVMLEQISRISQQIGYYLHRASMRGGTLLSRELHPVAPLLDNLTSALNKVYQRKGVNISLDISPEISFVGEQNDFVEVMGNVLDNACKYCLEFVEISARQTDEHLYIVVEDDGPGIPLSKREVIFDRGQRVDTLRPGQGVGLAVAREITEQYEGKIVAGESMLGGARMEVIFGRQHSAPKDE"}}, "note": "This is one part of the list.", "data": [{"variants_of": "B1", "assay": "enrichment ratio after two sorts for PhoP signalling (ratio (wild type AVST 3.29)); higher = more functional", "settings": "with PhoP (E. coli)", "values": [{"variant": "DRHN", "enrichment ratio": "≤ 0.25"}, {"variant": "SFPN", "enrichment ratio": "≤ 0.25"}, {"variant": "WPDY", "enrichment ratio": "≤ 0.25"}, {"variant": "FGNC", "enrichment ratio": "≤ 0.25"}, {"variant": "AGYF", "enrichment ratio": "≤ 0.25"}, {"variant": "ECLR", "enrichment ratio": "≤ 0.25"}, {"variant": "GGQV", "enrichment ratio": "≤ 0.25"}, {"variant": "TVDA", "enrichment ratio": "≤ 0.25"}, {"variant": "QVRY", "enrichment ratio": "≤ 0.25"}, {"variant": "GTSS", "enrichment ratio": 1.17}, {"variant": "IPKL", "enrichment ratio": "≤ 0.25"}, {"variant": "EERS", "enrichment ratio": "≤ 0.25"}, {"variant": "GAMQ", "enrichment ratio": "≤ 0.25"}, {"variant": "ATRL", "enrichment ratio": "≤ 0.25"}, {"variant": "VFVW", "enrichment ratio": "≤ 0.25"}, {"variant": "RSVL", "enrichment ratio": "≤ 0.25"}, {"variant": "HTTT", "enrichment ratio": "≤ 0.25"}, {"variant": "ARIG", "enrichment ratio": "≤ 0.25"}, {"variant": "MEVC", "enrichment ratio": "≤ 0.25"}, {"variant": "IDGL", "enrichment ratio": "≤ 0.25"}, {"variant": "VKNG", "enrichment ratio": "≤ 0.25"}, {"variant": "YHRI", "enrichment ratio": "≤ 0.25"}, {"variant": "GKYA", "enrichment ratio": "≤ 0.25"}, {"variant": "KLVF", "enrichment ratio": "≤ 0.25"}, {"variant": "MWDE", "enrichment ratio": "≤ 0.25"}, {"variant": "RRFV", "enrichment ratio": "≤ 0.25"}, {"variant": "NCMN", "enrichment ratio": "≤ 0.25"}, {"variant": "PGPY", "enrichment ratio": "≤ 0.25"}, {"variant": "RFFQ", "enrichment ratio": "≤ 0.25"}, {"variant": "SCVA", "enrichment ratio": 4.93}, {"variant": "RLSP", "enrichment ratio": "≤ 0.25"}, {"variant": "SESP", "enrichment ratio": "≤ 0.25"}, {"variant": "MSFW", "enrichment ratio": "≤ 0.25"}, {"variant": "MCPP", "enrichment ratio": "≤ 0.25"}, {"variant": "QWLF", "enrichment ratio": "≤ 0.25"}, {"variant": "GSGN", "enrichment ratio": "≤ 0.25"}, {"variant": "HYTF", "enrichment ratio": "≤ 0.25"}, {"variant": "YYTV", "enrichment ratio": "≤ 0.25"}, {"variant": "PQPA", "enrichment ratio": "≤ 0.25"}, {"variant": "ITYG", "enrichment ratio": "≤ 0.25"}, {"variant": "AICA", "enrichment ratio": 3.23}, {"variant": "TEVN", "enrichment ratio": 9.1}, {"variant": "QGIA", "enrichment ratio": "≤ 0.25"}, {"variant": "PIMQ", "enrichment ratio": "≤ 0.25"}, {"variant": "WGSY", "enrichment ratio": "≤ 0.25"}, {"variant": "TCDP", "enrichment ratio": "≤ 0.25"}, {"variant": "DFLV", "enrichment ratio": "≤ 0.25"}, {"variant": "VAVL", "enrichment ratio": "≤ 0.25"}, {"variant": "YHMQ", "enrichment ratio": 0.346}, {"variant": "EKDR", "enrichment ratio": "≤ 0.25"}, {"variant": "IYMK", "enrichment ratio": "≤ 0.25"}, {"variant": "WTMI", "enrichment ratio": "≤ 0.25"}, {"variant": "RGRH", "enrichment ratio": "≤ 0.25"}, {"variant": "DKWW", "enrichment ratio": "≤ 0.25"}, {"variant": "WTLI", "enrichment ratio": "≤ 0.25"}, {"variant": "GNCG", "enrichment ratio": "≤ 0.25"}, {"variant": "LENR", "enrichment ratio": "≤ 0.25"}, {"variant": "QGEF", "enrichment ratio": "≤ 0.25"}, {"variant": "SEKF", "enrichment ratio": "≤ 0.25"}, {"variant": "FFCD", "enrichment ratio": "≤ 0.25"}, {"variant": "DWPS", "enrichment ratio": "≤ 0.25"}, {"variant": "THCQ", "enrichment ratio": 14.3}, {"variant": "DRCT", "enrichment ratio": "≤ 0.25"}, {"variant": "HPVA", "enrichment ratio": "≤ 0.25"}, {"variant": "WMLN", "enrichment ratio": "≤ 0.25"}, {"variant": "HQSA", "enrichment ratio": "≤ 0.25"}, {"variant": "FYFP", "enrichment ratio": "≤ 0.25"}, {"variant": "SPKD", "enrichment ratio": "≤ 0.25"}, {"variant": "KFDY", "enrichment ratio": "≤ 0.25"}, {"variant": "TGEI", "enrichment ratio": "≤ 0.25"}, {"variant": "MGVV", "enrichment ratio": 15.6}, {"variant": "EMHM", "enrichment ratio": "≤ 0.25"}, {"variant": "SSVA", "enrichment ratio": 10.9}, {"variant": "QNFN", "enrichment ratio": "≤ 0.25"}, {"variant": "YSKQ", "enrichment ratio": "≤ 0.25"}, {"variant": "GNTK", "enrichment ratio": "≤ 0.25"}, {"variant": "YPGK", "enrichment ratio": "≤ 0.25"}, {"variant": "RGAN", "enrichment ratio": "≤ 0.25"}, {"variant": "YEAV", "enrichment ratio": "≤ 0.25"}, {"variant": "SCIR", "enrichment ratio": 0.574}, {"variant": "KRLE", "enrichment ratio": "≤ 0.25"}, {"variant": "SSNH", "enrichment ratio": 2.35}, {"variant": "TKIH", "enrichment ratio": 15.7}, {"variant": "FWRH", "enrichment ratio": "≤ 0.25"}, {"variant": "LSVI", "enrichment ratio": "≤ 0.25"}, {"variant": "GNGA", "enrichment ratio": "≤ 0.25"}, {"variant": "AIYS", "enrichment ratio": 0.289}, {"variant": "LRHH", "enrichment ratio": "≤ 0.25"}, {"variant": "HPLL", "enrichment ratio": "≤ 0.25"}, {"variant": "VFCF", "enrichment ratio": "≤ 0.25"}, {"variant": "DKWG", "enrichment ratio": "≤ 0.25"}, {"variant": "GNVD", "enrichment ratio": "≤ 0.25"}, {"variant": "AKCG", "enrichment ratio": 2.88}, {"variant": "VLNM", "enrichment ratio": "≤ 0.25"}, {"variant": "MEKS", "enrichment ratio": "≤ 0.25"}, {"variant": "FRSR", "enrichment ratio": "≤ 0.25"}, {"variant": "RYSI", "enrichment ratio": "≤ 0.25"}, {"variant": "VHSY", "enrichment ratio": "≤ 0.25"}, {"variant": "LAAY", "enrichment ratio": "≤ 0.25"}, {"variant": "TEVT", "enrichment ratio": 3.71}, {"variant": "NMLV", "enrichment ratio": "≤ 0.25"}, {"variant": "IETC", "enrichment ratio": "≤ 0.25"}, {"variant": "AMTT", "enrichment ratio": "≤ 0.25"}, {"variant": "SCIC", "enrichment ratio": 7.92}, {"variant": "MAPY", "enrichment ratio": "≤ 0.25"}, {"variant": "FCSN", "enrichment ratio": "≤ 0.25"}, {"variant": "QTDM", "enrichment ratio": "≤ 0.25"}, {"variant": "LHTF", "enrichment ratio": "≤ 0.25"}, {"variant": "DRSK", "enrichment ratio": "≤ 0.25"}, {"variant": "WWFN", "enrichment ratio": "≤ 0.25"}, {"variant": "LDTS", "enrichment ratio": "≤ 0.25"}, {"variant": "YKKM", "enrichment ratio": "≤ 0.25"}, {"variant": "TLYL", "enrichment ratio": 2.86}, {"variant": "SLKR", "enrichment ratio": "≤ 0.25"}, {"variant": "MVYR", "enrichment ratio": "≤ 0.25"}, {"variant": "PLVY", "enrichment ratio": "≤ 0.25"}, {"variant": "WRIQ", "enrichment ratio": "≤ 0.25"}, {"variant": "LHEA", "enrichment ratio": "≤ 0.25"}, {"variant": "YDIC", "enrichment ratio": "≤ 0.25"}, {"variant": "LTTR", "enrichment ratio": "≤ 0.25"}, {"variant": "YYLC", "enrichment ratio": "≤ 0.25"}, {"variant": "WCRQ", "enrichment ratio": "≤ 0.25"}, {"variant": "HNCA", "enrichment ratio": "≤ 0.25"}, {"variant": "WSAV", "enrichment ratio": "≤ 0.25"}, {"variant": "QRMI", "enrichment ratio": "≤ 0.25"}, {"variant": "HGCQ", "enrichment ratio": "≤ 0.25"}, {"variant": "NDMP", "enrichment ratio": "≤ 0.25"}, {"variant": "QLRH", "enrichment ratio": "≤ 0.25"}, {"variant": "FSHA", "enrichment ratio": "≤ 0.25"}, {"variant": "NFNC", "enrichment ratio": "≤ 0.25"}, {"variant": "WTMY", "enrichment ratio": "≤ 0.25"}, {"variant": "RTVY", "enrichment ratio": "≤ 0.25"}, {"variant": "TSSL", "enrichment ratio": 13.7}, {"variant": "WVFA", "enrichment ratio": "≤ 0.25"}, {"variant": "EFHK", "enrichment ratio": "≤ 0.25"}, {"variant": "IIKI", "enrichment ratio": "≤ 0.25"}, {"variant": "GPNL", "enrichment ratio": 0.342}, {"variant": "EARM", "enrichment ratio": "≤ 0.25"}, {"variant": "MSAC", "enrichment ratio": 10.3}, {"variant": "RAPF", "enrichment ratio": "≤ 0.25"}, {"variant": "NKMY", "enrichment ratio": "≤ 0.25"}, {"variant": "LTGR", "enrichment ratio": "≤ 0.25"}, {"variant": "MCAI", "enrichment ratio": 8.95}, {"variant": "QTMS", "enrichment ratio": "≤ 0.25"}, {"variant": "AFFG", "enrichment ratio": "≤ 0.25"}, {"variant": "VGGM", "enrichment ratio": "≤ 0.25"}, {"variant": "WNMH", "enrichment ratio": "≤ 0.25"}, {"variant": "LKYR", "enrichment ratio": 0.543}, {"variant": "LWSL", "enrichment ratio": "≤ 0.25"}, {"variant": "TFIT", "enrichment ratio": "≤ 0.25"}, {"variant": "TVIR", "enrichment ratio": "≤ 0.25"}, {"variant": "ETPR", "enrichment ratio": "≤ 0.25"}, {"variant": "LAAD", "enrichment ratio": "≤ 0.25"}, {"variant": "NMGE", "enrichment ratio": "≤ 0.25"}, {"variant": "TIGF", "enrichment ratio": 8.05}, {"variant": "HQPV", "enrichment ratio": "≤ 0.25"}, {"variant": "IYMR", "enrichment ratio": "≤ 0.25"}, {"variant": "RNIR", "enrichment ratio": "≤ 0.25"}, {"variant": "YLGV", "enrichment ratio": "≤ 0.25"}, {"variant": "HYIY", "enrichment ratio": "≤ 0.25"}, {"variant": "KAPF", "enrichment ratio": "≤ 0.25"}, {"variant": "NKYV", "enrichment ratio": "≤ 0.25"}, {"variant": "GSVK", "enrichment ratio": "≤ 0.25"}, {"variant": "KCLW", "enrichment ratio": "≤ 0.25"}, {"variant": "NIPI", "enrichment ratio": "≤ 0.25"}, {"variant": "WIPT", "enrichment ratio": "≤ 0.25"}, {"variant": "TFWT", "enrichment ratio": "≤ 0.25"}, {"variant": "FIVA", "enrichment ratio": "≤ 0.25"}, {"variant": "GSQA", "enrichment ratio": "≤ 0.25"}, {"variant": "QQGR", "enrichment ratio": "≤ 0.25"}, {"variant": "QERI", "enrichment ratio": "≤ 0.25"}, {"variant": "PRRK", "enrichment ratio": "≤ 0.25"}, {"variant": "SKRS", "enrichment ratio": "≤ 0.25"}, {"variant": "DNDI", "enrichment ratio": "≤ 0.25"}, {"variant": "CFAW", "enrichment ratio": "≤ 0.25"}, {"variant": "NPVT", "enrichment ratio": "≤ 0.25"}, {"variant": "HCML", "enrichment ratio": 3.61}, {"variant": "MLGQ", "enrichment ratio": "≤ 0.25"}, {"variant": "TLFE", "enrichment ratio": "≤ 0.25"}, {"variant": "NTLF", "enrichment ratio": "≤ 0.25"}, {"variant": "FKQG", "enrichment ratio": "≤ 0.25"}, {"variant": "SIAV", "enrichment ratio": 12.2}, {"variant": "HGSV", "enrichment ratio": "≤ 0.25"}, {"variant": "DSKQ", "enrichment ratio": "≤ 0.25"}, {"variant": "VHHM", "enrichment ratio": 2.3}, {"variant": "ISGT", "enrichment ratio": "≤ 0.25"}, {"variant": "IAYS", "enrichment ratio": "≤ 0.25"}, {"variant": "HFCK", "enrichment ratio": "≤ 0.25"}, {"variant": "FFIW", "enrichment ratio": "≤ 0.25"}, {"variant": "KFHI", "enrichment ratio": "≤ 0.25"}, {"variant": "LRQR", "enrichment ratio": "≤ 0.25"}, {"variant": "VAIY", "enrichment ratio": "≤ 0.25"}, {"variant": "DNVM", "enrichment ratio": "≤ 0.25"}, {"variant": "YSPV", "enrichment ratio": "≤ 0.25"}, {"variant": "YGHE", "enrichment ratio": "≤ 0.25"}]}]}
